The source of these data is US10047091B2, “Ionic liquid, lubricating agent, and magnetic recording medium” (Dexerials Corporation, priority 2012, dated 2018).

Some values that stand alone complete this part of the results.

The data set is described as follows: TG/DTA thermal analysis. In kind it is physicochemical. Conditions: air, 30° C. to 600° C., heating rate 10° C./min. On the procedure:
The measurement is performed in a temperature range of 30° C. to 600° C. at a heating rate of 10° C./min while introducing air at a flow rate of 200 mL/min using EXSTAR 6000 (manufactured by Seiko Instruments Inc.). As a gas chromatography mass spectrometer, 6890/5975 MSD (manufactured by Agilent Technologies, Inc.) was used. The following measurement conditions are used: column: DB-1 (15 m, diameter: 0.25 mm, membrane thickness: 0.1 μm); injection temperature: 280° C.; column temperature: initial temperature of 40° C., hold for 5 min, heated to 340° C. at the heating rate of 20° C./min, and hold at the same temperature; mass spectrometric unit: 5975MSD; MS detection mode: EI^+; quadrupole temperature: 150° C.; ion source temperature: 300° C.; mass scanning range: m/z 33-700; and calibration: PFTBA.
Ionic liquids obtained from Examples 2, 28, and 29 and Comparative Examples 16 and 17 were subjected to a TG measurement using EXSTAR 6000 (Seiko Instruments Inc.) (Examples 30 and 31, and Comparative Examples 18 and 19). Z-DOL was also subjected to the TG measurement (Comparative Example 20). Weight loss was measured while purging air in a temperature range of 30° C. to 600° C. at a heating rate of 10° C./min.
The TG/DTA measurement was performed in a temperature range of 30° C. to 600° C. at a heating rate of 10° C./min while introducing air at a flow rate of 200 mL/min using EXSTAR 6000 (manufactured by Seiko Instruments Inc.). As a gas chromatography mass spectrometer, 6890/5975 MSD (manufactured by Agilent Technologies, Inc.) was used. The following measurement conditions were used: column: DB-1 (15 m, diameter: 0.25 mm, membrane thickness: 0.1 μm); injection temperature: 280° C.; column temperature: initial temperature of 40° C., hold for 5 min, heated to 340° C. at the heating rate of 20° C./min, and hold at the same temperature; mass spectrometric unit: 5975MSD; MS detection mode: EI^+; quadrupole temperature: 150° C.; ion source temperature: 300° C.; mass scanning range: m/z 33-700; and calibration: PFTBA.

Consider `CCCCCCCCCCCCCCCCCCN1CCCN2CCCN=C12.O=S(=O)(O)C(F)(F)C(F)(F)C(F)(F)C(F)(F)C(F)(F)C(F)(F)C(F)(F)C(F)(F)F` [Ionic liquid 17, 7-n-octadecyl-1,5,7-triazabicyclo[4.4.0]-5-decene (C18-TBD) pentadecafluorooctane sulfonic acid salt], for which the “Exothermic peak temperature in DTA measurement” value by setting is: (first exothermic peak) 412 °C; (second exothermic peak) 444 °C.
The matching figures for `CCCCCCCCCCCCCCCCCCC1CCCCN2CCCN=C12.O=S(=O)(O)C(F)(F)C(F)(F)C(F)(F)C(F)(F)C(F)(F)C(F)(F)C(F)(F)C(F)(F)F` (stereo not shown) [Ionic liquid 15, 6-n-octadecyl-1,8-diazabicyclo[5.4.0]-7-undecene (C18-DBU) pentadecafluorooctane sulfonic acid salt]: 434 °C and 468 °C.
